# Experimental data from publication PMC4336329 (PLoS ONE, 2015).
# Out of some 310,000 compounds screened, about 14,000 (4.5%) showed an effect of 50% or more. Effects have a minus sign here. This is one part of the list.
# Target: human ether-à-go-go-related gene (hERG) potassium channel (human, UniProt Q12809)
# Test: primary screen, population patch clamp on CHO cells stably expressing hERG
# 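Also: peak tail current of the secondary pulse compared with the same well before compound.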
# Chain of human ether-à-go-go-related gene (hERG) potassium channel (Q12809 whole entry, looked up): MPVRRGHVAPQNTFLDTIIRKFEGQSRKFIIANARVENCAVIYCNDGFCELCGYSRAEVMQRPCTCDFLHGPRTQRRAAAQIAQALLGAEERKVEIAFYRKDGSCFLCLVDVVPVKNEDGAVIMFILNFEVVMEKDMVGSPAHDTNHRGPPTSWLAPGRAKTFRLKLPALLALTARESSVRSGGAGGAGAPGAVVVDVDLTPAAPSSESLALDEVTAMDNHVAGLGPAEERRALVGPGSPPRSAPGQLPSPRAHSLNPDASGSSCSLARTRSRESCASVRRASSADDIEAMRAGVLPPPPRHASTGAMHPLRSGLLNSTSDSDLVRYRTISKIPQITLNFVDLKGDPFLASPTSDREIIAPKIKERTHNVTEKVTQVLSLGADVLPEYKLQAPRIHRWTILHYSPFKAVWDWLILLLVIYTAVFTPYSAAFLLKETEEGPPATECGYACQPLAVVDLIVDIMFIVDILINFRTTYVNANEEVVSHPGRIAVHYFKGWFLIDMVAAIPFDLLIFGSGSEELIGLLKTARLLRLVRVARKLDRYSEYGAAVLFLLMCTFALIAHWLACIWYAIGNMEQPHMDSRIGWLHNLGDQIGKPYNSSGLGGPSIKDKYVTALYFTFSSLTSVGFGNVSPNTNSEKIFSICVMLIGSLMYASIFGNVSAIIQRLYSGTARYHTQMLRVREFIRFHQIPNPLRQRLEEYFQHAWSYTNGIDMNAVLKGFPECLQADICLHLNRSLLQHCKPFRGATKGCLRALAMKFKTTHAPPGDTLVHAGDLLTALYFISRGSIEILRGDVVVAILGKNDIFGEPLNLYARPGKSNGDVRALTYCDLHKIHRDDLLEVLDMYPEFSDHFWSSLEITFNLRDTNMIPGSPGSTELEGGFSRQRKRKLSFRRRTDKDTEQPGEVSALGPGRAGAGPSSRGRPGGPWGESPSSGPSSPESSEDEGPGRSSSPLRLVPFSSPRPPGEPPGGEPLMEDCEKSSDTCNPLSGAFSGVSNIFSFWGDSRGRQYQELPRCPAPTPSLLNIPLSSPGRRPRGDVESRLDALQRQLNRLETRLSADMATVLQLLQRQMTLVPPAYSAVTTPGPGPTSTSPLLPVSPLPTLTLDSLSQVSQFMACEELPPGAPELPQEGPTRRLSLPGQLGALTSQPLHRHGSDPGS
row,Compound,"hERG current change (%, negative = inhibition) at 10uM [%]"
1,COC(=O)C1C/C(=N\NS(=O)(=O)c2ccc(C)cc2)c2sccc2C1 (stereo not shown),-12.5
2,O=c1cc(-c2ccc3c(c2)OCCO3)oc2ccc(Cl)cc12,-1.8
3,Cc1cccc(NC(=O)c2ccccc2C(=O)O)c1,-11.5
4,O=C(NC(=S)NCCN1CCOCC1)c1ccc(F)cc1,-4.01
5,Cc1ccc(C(=O)NNC(=O)Cc2nc3nc(C)cc(C)n3n2)cc1,11.9
6,COC(CNC(=O)c1cnn2c(C)c(Cc3ccccc3)c(C)nc12)OC,-19
7,CC(C)N(C)S(=O)(=O)c1ccc(NC(=O)CSC(=S)N2CCCC2)cc1,0.708
8,CN(CC(=O)Nc1ccc(F)c(F)c1F)C(=O)c1ccc(=O)[nH]c1,0.382
9,O=C(N1CCCC1)N1CCN(S(=O)(=O)c2ccccc2)CC1,7.18
10,CCCCn1c(CN2CCOCC2)nc2c1c(=O)n(C)c(=O)n2C,4.48
11,CC(=O)Nc1ccc(Nc2ncnc3c2cnn3-c2ccc(C)cc2C)cc1,-18.8
12,COc1ccc(C(=O)O)cc1S(=O)(=O)NCc1cccnc1,19.4
13,C/C=C(\C)CN1CCC(Oc2cc(C(=O)NC3CC3)ccc2OC)CC1,-64.5
14,O=C(COC(=O)c1cc(=O)[nH]c2ccccc12)NC1CCCCCCC1,-2.97
15,COC(=O)C(C(=O)OC)C(c1ccccc1)C(C(=O)c1ccccc1)[N+](=O)[O-] (stereo not shown),4.74
16,O=C(CCc1nc2ccccc2[nH]c1=O)OCC(=O)c1ccc(Cl)cc1,2.47
17,C/C(=N\NC(=O)COc1ccccc1[N+](=O)[O-])c1cccc(NC(=O)c2ccncc2)c1,-8.15
18,COc1ccc(-c2csc(NC(=O)Cc3ccccc3F)n2)cc1OC,2.29
19,O=C(c1cc(N2C(=O)C3C4CCC(C4)C3C2=O)ccc1Cl)N1CCN(c2ccccc2F)CC1 (stereo not shown),-0.361
20,Cc1ccc2c(c1C)NC(=O)C2(O)CC(=O)c1ccc2c(c1)OCO2 (stereo not shown),-6.7
21,COc1ccc(Cn2ccnc2)cc1Br.Cl,1.37
22,COc1ccccc1OCCCn1cc(C(=O)C2CC2)c2ccccc21,-2.64

row,Compound,"hERG current change (%, negative = inhibition) at 10uM [%]"
1,Cc1ccc(S(=O)(=O)c2ccc(Cl)cc2)cc1S(=O)(=O)N1CCN(C)CC1,-27
2,Cc1nc2cc(Cl)c(Cl)cc2nc1C,14.1
3,COc1cc(C(=O)NCC(=O)N/N=C/c2ccc(-c3ccc([N+](=O)[O-])cc3)o2)cc(OC)c1OC,3.23
4,O=C(O)/C=C/C(=O)Nc1nccs1,19.3
5,O=C(NCCOc1ccccc1-c1ccccc1)c1ccco1,1.75
6,COc1cc(/C=N/NS(=O)(=O)c2ccc(C)c([N+](=O)[O-])c2)cc([N+](=O)[O-])c1O,18.1
7,COc1ccc(OC)c(NC(=O)C2CCCN2C(=O)NC2CCCCC2)c1 (stereo not shown),-4.24
8,O=C(CCCc1ccccc1)Nc1cccc2c1CCCC2,-2.28
9,O=C(CCNC(=O)c1ccc([N+](=O)[O-])cc1)Nc1ccc(F)c(F)c1F,-10.2
10,CCOC(=O)c1ccc(N2CCOCC2)c(NC(=O)c2nccnc2C(=O)O)c1,15.1
11,O=C(O)CCCCCNS(=O)(=O)c1cccc2c1C(=O)c1ccccc1C2=O,-29.5
12,Cc1nc(CNS(=O)(=O)c2ccc(Oc3ccccc3)cc2)cs1,-22.3
13,O=C(CSc1ccccc1)NCc1ccc(F)cc1,-0.327
14,Cc1ccc(N(C(=O)c2csnn2)C(C(=O)NC(C)(C)C)c2ccccn2)cc1 (stereo not shown),15.4
15,CC(=O)c1ccc(NC(=O)C(C)NCc2ccc(Cl)cc2)cc1 (stereo not shown),16.2
16,CCOC(=O)C1(Cc2cccc(F)c2)CCN(C(=O)COC)CC1,7.65
17,N#Cc1ccccc1Sc1ccccc1C(=O)NCC(c1ccco1)N1CCCC1 (stereo not shown),-27.9
18,Cc1nn(Cc2ccccc2)c(C)c1C(=O)NCCN1C(=O)S/C(=C\c2ccccc2)C1=O,3.52
19,Cc1ccc(CCN2CC(C(=O)NCCCN3CCN(C)CC3)CC2=O)cc1 (stereo not shown),-8.81
20,CCC1(c2ccccc2)NC(=O)N(CC(=O)Nc2ccccc2N2CCCC2)C1=O (stereo not shown),1.38
21,Cc1ccccc1NC(=O)COC(=O)c1ccc2nc(C)c(C)nc2c1,15.2
